Laboratory results from PubChem BioAssay (Tox21).
Inconclusive means that the source gave no clear call. Such entries were picked first, then a sample of the others. For part of these data: Potencies of inconclusive entries are doubtful fits and often do not repeat. The source made the active and inactive calls. Unless noted, the call rests on the fitted dose curve.

What was measured:
[1] = molecular target: Peroxisome proliferator-activated receptor gamma (Homo sapiens) (UniProt P37231); assay: qHTS assay to identify small molecule antagonists of the peroxisome proliferator-activated receptor gamma (PPARg) signaling pathway (AID 743191); settings: HEK293H PPARg-UAS-bla, beta-lactamase ratio, antagonist, 17 h; ratio activity, negative = inhibition: at 62.6 µM (top of the series) unless noted; further: nearly all actives have a fitted effect of over 30% in size; further: potency means the concentration at half of the fitted maximal effect
Summary of the method: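 GeneBLAzer PPARg UAS-bla HEK293H cells carrying a UAS-driven beta-lactamase reporter were plated at 3000 cells/well, preincubated 5 h at 37C, then given compound for 17 h at 37C; LiveBLAzer B/G FRET substrate was read after 1 h at room temperature.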

[2] = qHTS assay for small molecule agonists of the antioxidant response element (ARE) signaling pathway (AID 743202; active means well fitted activation curve with a large enough effect in the signal ratio in the repeat runs, not every such curve was filed as active; inconclusive means weak or mixed curves, or effect the other way; inactive means no such curve, though single readings can be large or run the other way; the % refers to the signal ratio; further: potency means the concentration at half of the fitted maximal effect; on activation: on the % scale 0 is the no-effect control and ±100 the full control effect); settings: HepG2 ARE-bla reporter, beta-lactamase FRET, 16 h
Summary of the method: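 Compounds delivered in DMSO to ARE-bla HepG2 cells (2,000 cells/well, pre-incubated 5 h) and left 16 h at 37 C. LiveBLAzer B/G FRET substrate then added for 2 h at RT before fluorescence reading.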

[3] = qHTS assay for small molecule activators of the heat shock response signaling pathway (AID 743210; active means well fitted activation curve with a large enough effect in the signal ratio in the repeat runs, with a control signal flat, not every such curve was filed as active; inconclusive means weak or mixed curves; the % refers to the signal ratio; further: potency means the concentration at half of the fitted maximal effect); settings: HeLa HSE-bla reporter, beta-lactamase ratio, 5 h; activation: at 62.6 µM (top of the series)
Summary of the method: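 Reporter gene assay: HeLa cells stably bearing an HSE-bla construct, compound treatment 5 h at 37 C, LiveBLAzer substrate 2.5 h at RT, fluorescence intensity.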

[4] = molecular target: Vitamin D3 receptor (Homo sapiens) (UniProt P11473); assay: qHTS assay to identify small molecule antagonists of the vitamin D receptor (VDR) signaling pathway (AID 743223; active means well fitted inhibition curve with a large enough effect in the signal ratio in the repeat runs, not every such curve was filed as active; inconclusive means weak or mixed curves, or effect the other way; inactive means no such curve, though single readings can be large or run the other way; the % refers to the signal ratio; further: on the % scale 0 is the no-effect control and ±100 the full control effect); settings: VDR-UAS-bla HEK293T, beta-lactamase FRET ratio, 16 h
Summary of the method: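 Beta-lactamase reporter read-out: FRET substrate fluorescence after 2 h at room temperature, following 16 h exposure of VDR-bla cells to test compound plus 3 nM (final) 1alpha,25-dihydroxyvitamin D3 agonist at 37C.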

[5] = qHTS assay to identify small molecule agonists of the endoplasmic reticulum stress response signaling pathway (AID 1159516; active means well fitted activation curve with a large enough effect in the signal ratio in the repeat runs, not every such curve was filed as active; inconclusive means weak or mixed curves, or effect the other way; the % refers to the signal ratio; further: potency means the concentration at half of the fitted maximal effect); settings: ESRE-bla HeLa, ER stress beta-lactamase reporter, 5 h; activation: at 61 µM (top of the series) unless noted
Summary of the method: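 ER stress element reporter (bla) in HeLa. 1,500 cells/well, overnight attachment; 5 hr compound; 2 hr RT substrate; dual-emission fluorescence.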

[6] = qHTS assay to identify small molecule agonists of the peroxisome proliferator-activated receptor delta (PPARd) signaling pathway - cell viability counter screen (AID 743211; active means well fitted curve in the direction sought with a large enough effect in the repeat runs; inconclusive means weak or mixed curves; inactive means no such curve, though single readings can be large; an effect the other way counts as inactive or inconclusive; further: nearly all actives have a fitted effect of over 55% in size; further: potency means the concentration at half of the fitted maximal effect); settings: PPARd-bla HEK293H viability, CellTiter-Glo luminescence, 17 h; activity change, negative = cytotoxicity: at 62.6 µM (top of the series) unless noted
Summary of the method: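 Read-out: CellTiter-Glo luminescence, 30 min RT, measured in the same wells as the beta-lactamase reporter. Cells: GeneBLAzer PPAR delta UAS-bla HEK293H, 3000 cells/well, compound exposure 17 h at 37C.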

[7] = molecular target: Peroxisome proliferator-activated receptor delta (Homo sapiens) (UniProt Q03181); assay: qHTS assay to identify small molecule agonists of the peroxisome proliferator-activated receptor delta (PPARd) signaling pathway (AID 743212); settings: HEK293H PPARd-UAS-bla, beta-lactamase FRET ratio, 17 h; activation: at 62.6 µM (top of the series) unless noted; further: on the % scale 0 is the no-effect control and ±100 the full control effect
Summary of the method: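 A PPARd-bla HEK293H line with beta-lactamase under an Upstream Activator Sequence is treated with compounds at 37 C. Substrate loading for 2 h at room temperature precedes the fluorescence measurement.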

[8] = qHTS assay to identify small molecule agonists of the farnesoid-X-receptor (FXR) signaling pathway - cell viability counter screen (AID 743218; active means well fitted curve in the direction sought with a large enough effect in the repeat runs; inconclusive means weak or mixed curves; inactive means no such curve, though single readings can be large; an effect the other way counts as inactive or inconclusive; further: nearly all actives have a fitted effect of over 45% in size; further: potency means the concentration at half of the fitted maximal effect); settings: FXR-bla HEK293T viability, CellTiter-Glo luminescence, 16 h; viability change, negative = cytotoxic: at 62.6 µM (top of the series) unless noted
Summary of the method: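 In GeneBLAzer FXR-UAS-bla HEK 293T cells, compounds act for 16 h at 37 C. Cell viability is then scored in the reporter wells by CellTiter-Glo, 30 min at RT, luminescence.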

[9] = qHTS assay to identify small molecule antagonists of the farnesoid-X-receptor (FXR) signaling pathway - cell viability counter screen (AID 743221; active means well fitted cell-killing curve with a large enough effect in the repeat runs, not every such curve was filed as active; inconclusive means weak or mixed curves, or effect the other way; inactive means no such curve, though single readings can be large or run the other way; further: potency means the concentration at half of the fitted maximal effect; nearly all actives have a fitted effect of over 50% in size); settings: FXR-bla HEK293T viability, CellTiter-Glo luminescence, 16 h; activity change, negative = cytotoxicity: at 62.6 µM (top of the series) unless noted
Summary of the method: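 HEK 293T FXR-bla cells, 5 h pre-incubation; compound + CDCA 50 uM final, 16 h, 37 C; beta-lactamase FRET read first, then CellTiter-Glo luminescence, 30 min RT.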

[10] = qHTS assay to identify small molecule antagonists of the vitamin D receptor (VDR) signaling pathway - cell viability counter screen (AID 743225; active means well fitted curve in the direction sought with a large enough effect in the repeat runs; inconclusive means weak or mixed curves; inactive means no such curve, though single readings can be large; an effect the other way counts as inactive or inconclusive; further: potency means the concentration at half of the fitted maximal effect; nearly all actives have a fitted effect of over 50% in size); settings: VDR-bla HEK293T viability, CellTiter-Glo luminescence, 16 h; viability change, negative = cytotoxic: at 61 µM (top of the series) unless noted
Summary of the method: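 Viability counter screen run in the same wells as the beta-lactamase reporter assay: HEK 293T VDR-UAS-bla cells, 16 h compound exposure at 37C with 3 nM (final) 1-alpha,25-dihydroxyvitamin D3. CellTiter-Glo luminescence, 30 min, room temperature.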

[11] = qHTS assay to identify small molecule antagonists of the peroxisome proliferator-activated receptor delta (PPARd) signaling pathway - cell viability counter screen (AID 743213; active means well fitted curve in the direction sought with a large enough effect in the repeat runs; inconclusive means weak or mixed curves; inactive means no such curve, though single readings can be large; an effect the other way counts as inactive or inconclusive; further: on the % scale 0 is the no-effect control and ±100 the full control effect; nearly all actives have a fitted effect of over 50% in size); settings: PPARd-bla HEK293H viability, CellTiter-Glo luminescence, 17 h; viability change, negative = cytotoxic: at 62 µM (top of the series) unless noted
Summary of the method: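 Cytotoxicity counter screen: CellTiter-Glo luminescence read 30 min after addition, in the same wells as the reporter assay. There, PPARd UAS-bla HEK293H cells (3000/well) were treated 17 h at 37 C with compound and 300 nM L165041.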

[12] = molecular target: Bile acid receptor (Homo sapiens) (UniProt Q96RI1); assay: qHTS assay to identify small molecule antagonists of the farnesoid-X-receptor (FXR) signaling pathway (AID 743217; active means well fitted inhibition curve with a large enough effect in the signal ratio in the repeat runs, not every such curve was filed as active; inconclusive means weak or mixed curves, or effect the other way; inactive means no such curve, though single readings can be large or run the other way; the % refers to the signal ratio; further: potency means the concentration at half of the fitted maximal effect); settings: HEK293T FXR-UAS-bla, beta-lactamase ratio, CDCA-stimulated, 16 h; activity change, negative = inhibition: at 62.6 µM (top of the series) unless noted
Summary of the method: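 Beta-lactamase reporter under UAS control in HEK 293T cells; compound exposure 16 h at 37 °C in the presence of chenodeoxycholic acid (50 uM final); signal from B/G FRET substrate after 2 h at room temperature.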

[13] = molecular target: Bile acid receptor (Homo sapiens) (UniProt Q96RI1); assay: qHTS assay to identify small molecule agonists of the farnesoid-X-receptor (FXR) signaling pathway (AID 743220; active means well fitted activation curve with a large enough effect in the signal ratio in the repeat runs, not every such curve was filed as active; inconclusive means weak or mixed curves, or effect the other way; the % refers to the signal ratio; further: on the % scale 0 is the no-effect control and ±100 the full control effect); settings: HEK293T FXR-UAS-bla, beta-lactamase FRET ratio, 16 h; activation: at 62.6 µM (top of the series) unless noted
Summary of the method: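 Beta-lactamase reporter under UAS control in GeneBLAzer FXR HEK 293T cells (5000/well) measured with LiveBLAzer FRET substrate after 2 h at room temperature. Compound exposure lasted 16 h at 37C.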

[14] = qHTS assay to identify small molecule agonists of the vitamin D receptor (VDR) signaling pathway - cell viability counter screen (AID 743224; active means well fitted curve in the direction sought with a large enough effect in the repeat runs; inconclusive means weak or mixed curves; inactive means no such curve, though single readings can be large; an effect the other way counts as inactive or inconclusive; further: potency means the concentration at half of the fitted maximal effect; nearly all actives have a fitted effect of over 50% in size)
Summary of the method: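 VDR-bla cell line, quantitative HTS format; 16 h compound incubation (37C, 5% CO2); ATP-based CellTiter-Glo luminescence measured in the reporter assay wells.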

[15] = qHTS assay for small molecule agonists of the antioxidant response element (ARE) signaling pathway - cell viability counter screen (AID 743203); further: potency means the concentration at half of the fitted maximal effect; nearly all actives have a fitted effect of over 55% in size
Summary of the method: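 Cells (ARE-bla HepG2, 2,000/well) receive DMSO-dissolved compounds after a 5 hrs rest. Plates incubate 16 hrs at 37C/5% CO2. CellTiter-Glo luminescence is then recorded after 30 min at room temperature.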

[16] = activation: at 73.3 µM (top of the series) unless noted
[17] = activity change, negative = inhibition: at 61 µM (top of the series) unless noted
Tags describe the fitted curve by direction and shape or compound fluorescence and quenching.

Sequence of UniProt P11473 (P11473 whole entry, looked up): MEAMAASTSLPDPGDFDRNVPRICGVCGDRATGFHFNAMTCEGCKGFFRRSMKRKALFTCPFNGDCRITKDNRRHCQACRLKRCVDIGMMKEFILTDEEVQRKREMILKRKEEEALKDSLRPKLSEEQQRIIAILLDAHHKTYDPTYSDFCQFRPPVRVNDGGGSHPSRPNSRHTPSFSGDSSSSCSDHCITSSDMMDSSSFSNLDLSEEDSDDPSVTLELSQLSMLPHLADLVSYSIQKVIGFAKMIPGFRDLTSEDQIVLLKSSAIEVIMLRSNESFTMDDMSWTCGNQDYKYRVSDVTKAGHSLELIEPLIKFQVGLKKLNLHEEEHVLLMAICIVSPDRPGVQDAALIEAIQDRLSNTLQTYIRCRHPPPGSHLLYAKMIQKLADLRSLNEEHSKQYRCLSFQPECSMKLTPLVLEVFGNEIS
Sequence of UniProt P37231 (P37231 whole entry, looked up): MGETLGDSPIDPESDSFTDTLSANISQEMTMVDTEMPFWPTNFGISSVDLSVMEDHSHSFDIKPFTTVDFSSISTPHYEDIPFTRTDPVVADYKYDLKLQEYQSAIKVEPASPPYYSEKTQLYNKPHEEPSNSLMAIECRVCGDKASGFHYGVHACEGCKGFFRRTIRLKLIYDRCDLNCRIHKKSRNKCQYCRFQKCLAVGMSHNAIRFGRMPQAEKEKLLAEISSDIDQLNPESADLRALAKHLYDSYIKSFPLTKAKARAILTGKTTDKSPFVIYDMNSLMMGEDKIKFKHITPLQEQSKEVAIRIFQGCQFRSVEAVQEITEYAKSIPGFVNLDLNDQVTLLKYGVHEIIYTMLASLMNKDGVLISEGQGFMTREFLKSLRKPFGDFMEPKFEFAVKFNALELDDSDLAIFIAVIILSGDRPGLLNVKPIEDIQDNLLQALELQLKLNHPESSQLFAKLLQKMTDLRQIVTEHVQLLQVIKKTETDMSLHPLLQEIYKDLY
Sequence of UniProt Q96RI1 (Q96RI1 whole entry, looked up): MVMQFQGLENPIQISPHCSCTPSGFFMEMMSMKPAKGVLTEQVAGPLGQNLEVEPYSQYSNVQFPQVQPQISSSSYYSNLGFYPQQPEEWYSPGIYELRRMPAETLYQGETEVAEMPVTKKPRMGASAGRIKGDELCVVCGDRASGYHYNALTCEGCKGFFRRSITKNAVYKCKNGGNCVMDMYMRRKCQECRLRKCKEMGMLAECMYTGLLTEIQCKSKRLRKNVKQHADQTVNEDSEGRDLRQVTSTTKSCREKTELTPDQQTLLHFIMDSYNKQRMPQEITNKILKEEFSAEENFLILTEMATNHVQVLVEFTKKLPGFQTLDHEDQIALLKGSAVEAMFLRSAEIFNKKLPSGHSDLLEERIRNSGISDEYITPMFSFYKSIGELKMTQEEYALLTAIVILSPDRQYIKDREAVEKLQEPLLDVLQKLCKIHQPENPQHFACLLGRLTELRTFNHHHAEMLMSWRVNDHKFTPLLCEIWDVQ
Sequence of UniProt Q03181 (Q03181 whole entry, looked up): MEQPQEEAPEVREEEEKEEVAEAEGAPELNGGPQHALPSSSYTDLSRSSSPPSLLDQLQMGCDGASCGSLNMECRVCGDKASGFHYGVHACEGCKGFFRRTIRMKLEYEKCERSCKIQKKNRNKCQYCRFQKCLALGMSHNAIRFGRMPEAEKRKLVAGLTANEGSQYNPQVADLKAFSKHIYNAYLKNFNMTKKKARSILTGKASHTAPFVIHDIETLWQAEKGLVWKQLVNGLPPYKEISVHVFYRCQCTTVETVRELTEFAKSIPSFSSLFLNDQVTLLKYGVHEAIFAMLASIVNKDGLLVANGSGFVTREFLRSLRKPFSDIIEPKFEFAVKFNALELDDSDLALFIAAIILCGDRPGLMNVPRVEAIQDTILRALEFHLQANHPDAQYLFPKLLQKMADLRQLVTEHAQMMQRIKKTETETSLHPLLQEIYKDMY

Compound: CCCCN(CCCC)C(=S)S
- Potency [1]: inconclusive: 8.71 µM [inhibitor, full curve]
- Potency [2, 16]: inactive
- Potency [3]: inconclusive: 42 µM [activator]
- activity change, negative = inhibition [4, 17]: inconclusive: -38.2%
- Potency [5]: inactive

Compound: CC(Oc1ccc(Oc2ncc(C(F)(F)F)cc2Cl)cc1)C(=O)O (centres undefined)
- ratio activity, negative = inhibition [1]: inconclusive: -22.1%
- Potency [2, 16]: inconclusive: 54.5 µM
- Potency [6]: inconclusive: 49 µM [cytotoxic, partial curve]
- activation [7]: inconclusive: -2.47%
- Potency [8]: active: 21.9 µM
- Potency [9]: inconclusive: 34.7 µM [falling, partial curve]
- Potency [5]: inactive

Compound: COC(C)(C)CCCC(C)C/C=C/C(C)=C/C(=O)OC(C)C (centres undefined)
- ratio activity, negative = inhibition [1]: inconclusive: -0.0854%
- Potency [2, 16]: inconclusive: 67.5 µM [rising, single point]
- Potency [9]: inconclusive: 60.6 µM [falling, partial curve, poor fit]
- Potency [5]: inactive

Compound: CCOP(=S)(OCC)Oc1cc(C)nc(N(CC)CC)n1
- ratio activity, negative = inhibition [1]: inconclusive: -1.11%
- Potency [2, 16]: inconclusive: 61.1 µM [rising, partial curve, poor fit]
- Potency [6]: inconclusive: 34.7 µM [cytotoxic, partial curve]
- Potency [8]: inconclusive: 0.871 µM [rising, single point]
- Potency [9]: inconclusive: 30.9 µM [falling, partial curve, poor fit]
- Potency [10]: inconclusive: 6.16 µM [cytotoxic, full curve, poor fit]
- activation [5]: inconclusive: -0.0413%

Compound: O=[N+]([O-])C(Br)Br
- Potency [1]: inconclusive: 55 µM [single point]
- Potency [2, 16]: inconclusive: 77.1 µM [rising, single point]
- Potency [11]: inactive
- Potency [5]: inconclusive: 61.8 µM [single point]

Compound: O=C(O)C(Cl)Cl
- Potency [1]: inactive
- activation [2, 16]: inconclusive: -0.73%
- Potency [8]: inconclusive: 0.0023 µM [rising, full curve, poor fit]
- Potency [5]: inconclusive: 56.6 µM [activator, single point]

Compound: O=C1c2ccccc2C(=O)C1C(=O)C(c1ccccc1)c1ccccc1
- Potency [1]: inconclusive: 23.7 µM [rising, partial curve, poor fit]
- activation [2, 16]: inconclusive: 4.99%
- activity change, negative = cytotoxicity [6]: inconclusive: -21.3% [cytotoxic]
- Potency [12]: inconclusive: 7.5 µM [inhibitor, full curve]
- viability change, negative = cytotoxic [8]: inconclusive: 3.64%
- activation [13]: inconclusive: 1.23%
- Potency [14]: inconclusive: 8.41 µM [cytotoxic, partial curve, poor fit]
- Potency [5]: inconclusive: 1.34 µM [rising, partial curve]

Compound: [O-][Cl+2]([O-])O
- ratio activity, negative = inhibition [1]: inconclusive: 17.1%
- activation [2, 16]: inconclusive: -10.7%
- Potency [8]: inactive
- activity change, negative = inhibition [4, 17]: inconclusive: -2.62%
- activity change, negative = inhibition ([4]; at 61 µM (top of the series)): inactive: -2.69%
- Potency [5]: inactive

Compound: BrCCCBr
- ratio activity, negative = inhibition [1]: inconclusive: 1.08% [at 81.1 µM]
- Potency [2, 16]: inactive
- Potency [3]: inactive
- Potency [8]: inactive
- Potency [4, 17]: inactive
- activation [5]: inconclusive: 0.643% [at 78.8 µM]

Compound: CCCCCCCCCCCCCCCCCC(=O)O
- activation ([2]; at 94.8 µM (top of the series)): inconclusive: -1.44%

Compound: CCCSP(=O)(OCC)SCCC
- Potency [15]: inconclusive: 50.3 µM [cytotoxic, partial curve, poor fit]

Compound: O=[N+]([O-])O.O=[N+]([O-])O.[Cd]
- Potency [15]: active: 0.611 µM
